Measurements as given in the supplement of paper PMC11148083.
In brackets after ≈: the same amount, converted by molar mass. Several values for one entry are separate records, joined by “and”; a condition that tells them apart may be missing. Equal entries are not always repeated. MIC of E. coli strains with or without a β-lactamase plasmid, in LB (broth microdilution, 22 h, 37 °C, OD600 below 0.2; fosfomycin by agar dilution); pBAD18 genes induced with arabinose where stated. Higher = less susceptible. No active / inactive call. Values are arithmetic means of replicate MICs, so they fall between dilution steps. Colistin is a mixture; one drawing stands for it.

How the values were obtained:
[1] = system: Escherichia coli BW25113 (arabinose: 0.5% w/v); test: Broth microdilution in LB (fosfomycin: agar dilution), 22 h at 37 °C; MIC = lowest dose with OD600 below 0.2.
Escherichia coli ECOR01 = test: as above
Escherichia coli ECOR27 = test: as above
Escherichia coli ECOR35 = test: as above
Escherichia coli ECOR42 = test: as above
Escherichia coli ECOR47 = test: as above
Escherichia coli ECOR49 = test: as above
Escherichia coli ECOR53 = test: as above
Escherichia coli ECOR61 = test: as above
Escherichia coli ECOR70 = test: as above
Escherichia coli J53 = test: as above
[2] = system: Escherichia coli BW25113 (arabinose: 0.5% w/v); test: Agar dilution on LB agar with 25 mg/L glucose-6-phosphate.

C[C@@H](O)[C@H]1C(=O)N2C(C(=O)O)=C(S[C@@H]3CN[C@H](C(=O)Nc4cccc(C(=O)O)c4)C3)[C@H](C)[C@H]12 [ertapenem]
Settings	MIC
Escherichia coli ECOR01, plasmid: none	0.015 µg/mL (≈ 0.0315 µM)
Escherichia coli ECOR01, plasmid: pUN4 empty	0.0175 µg/mL (≈ 0.0368 µM)
Escherichia coli ECOR01, plasmid: pUN4 with blaCTX-M-15	0.227 µg/mL (≈ 0.477 µM)
Escherichia coli ECOR01, plasmid: pUN4 with blaOXA-48	0.146 µg/mL (≈ 0.307 µM)
Escherichia coli ECOR27, plasmid: none	0.00967 µg/mL (≈ 0.0203 µM)
Escherichia coli ECOR27, plasmid: pUN4 empty	0.0175 µg/mL (≈ 0.0368 µM)
Escherichia coli ECOR27, plasmid: pUN4 with blaCTX-M-15	0.125 µg/mL (≈ 0.263 µM)
Escherichia coli ECOR27, plasmid: pUN4 with blaOXA-48	3.33 µg/mL (≈ 7.01 µM)
Escherichia coli ECOR35, plasmid: none	0.007 µg/mL (≈ 0.0147 µM)
Escherichia coli ECOR35, plasmid: pUN4 empty	0.015 µg/mL (≈ 0.0315 µM)
Escherichia coli ECOR35, plasmid: pUN4 with blaCTX-M-15	0.0708 µg/mL (≈ 0.149 µM)
Escherichia coli ECOR35, plasmid: pUN4 with blaOXA-48	1.08 µg/mL (≈ 2.28 µM)
Escherichia coli ECOR42, plasmid: none	0.113 µg/mL (≈ 0.238 µM)
Escherichia coli ECOR42, plasmid: pUN4 empty	0.0175 µg/mL (≈ 0.0368 µM)
Escherichia coli ECOR42, plasmid: pUN4 with blaCTX-M-15	0.312 µg/mL (≈ 0.655 µM)
Escherichia coli ECOR42, plasmid: pUN4 with blaOXA-48	2 µg/mL (≈ 4.21 µM)
Escherichia coli ECOR47, plasmid: none	0.0262 µg/mL (≈ 0.0552 µM)
Escherichia coli ECOR47, plasmid: pUN4 empty	0.0225 µg/mL (≈ 0.0473 µM)
Escherichia coli ECOR47, plasmid: pUN4 with blaCTX-M-15	0.207 µg/mL (≈ 0.435 µM)
Escherichia coli ECOR47, plasmid: pUN4 with blaOXA-48	3.33 µg/mL (≈ 7.01 µM)
Escherichia coli ECOR49, plasmid: none	0.0488 µg/mL (≈ 0.103 µM)
Escherichia coli ECOR49, plasmid: pUN4 empty	0.015 µg/mL (≈ 0.0315 µM)
Escherichia coli ECOR49, plasmid: pUN4 with blaCTX-M-15	0.0658 µg/mL (≈ 0.138 µM)
Escherichia coli ECOR49, plasmid: pUN4 with blaOXA-48	1.5 µg/mL (≈ 3.15 µM)
Escherichia coli ECOR53, plasmid: none	0.015 µg/mL (≈ 0.0315 µM)
Escherichia coli ECOR53, plasmid: pUN4 empty	0.015 µg/mL (≈ 0.0315 µM)
Escherichia coli ECOR53, plasmid: pUN4 with blaCTX-M-15	0.237 µg/mL (≈ 0.498 µM)
Escherichia coli ECOR53, plasmid: pUN4 with blaOXA-48	6 µg/mL (≈ 12.6 µM)
Escherichia coli ECOR61, plasmid: none	0.007 µg/mL (≈ 0.0147 µM)
Escherichia coli ECOR61, plasmid: pUN4 empty	0.015 µg/mL (≈ 0.0315 µM)
Escherichia coli ECOR61, plasmid: pUN4 with blaCTX-M-15	0.205 µg/mL (≈ 0.431 µM)
Escherichia coli ECOR61, plasmid: pUN4 with blaOXA-48	0.188 µg/mL (≈ 0.394 µM)
Escherichia coli ECOR70, plasmid: none	0.007 µg/mL (≈ 0.0147 µM)
Escherichia coli ECOR70, plasmid: pUN4 empty	0.0137 µg/mL (≈ 0.0287 µM)
Escherichia coli ECOR70, plasmid: pUN4 with blaCTX-M-15	0.0975 µg/mL (≈ 0.205 µM)
Escherichia coli ECOR70, plasmid: pUN4 with blaOXA-48	1.17 µg/mL (≈ 2.45 µM)
Escherichia coli J53, plasmid: none	0.03 µg/mL and 0.02 µg/mL
Escherichia coli J53, plasmid: pOXA-48 DEL (blaOXA-48 not expressed)	0.015 µg/mL (≈ 0.0315 µM)
Escherichia coli J53, plasmid: pOXA-48 PV-B (blaOXA-48)	1 µg/mL (≈ 2.1 µM)
Escherichia coli J53, plasmid: pOXA-48 PV-D (blaOXA-48)	1 µg/mL (≈ 2.1 µM)
Escherichia coli J53, plasmid: pOXA-48 PV-E (blaOXA-48)	1 µg/mL (≈ 2.1 µM)
Escherichia coli J53, plasmid: pOXA-48 PV-K (blaOXA-48)	1 µg/mL (≈ 2.1 µM)
Escherichia coli J53, plasmid: pOXA-48 PV-O (blaOXA-48)	1 µg/mL (≈ 2.1 µM)
Escherichia coli J53, plasmid: pOXA-48 TET (blaOXA-48 replaced by tetC)	0.025 µg/mL (≈ 0.0526 µM)
Escherichia coli J53, plasmid: pOXA-48 WT (blaOXA-48)	1 µg/mL (≈ 2.1 µM)
Escherichia coli J53, plasmid: pUN4 empty	0.04 µg/mL and 0.0175 µg/mL
Escherichia coli J53, plasmid: pUN4 with blaCTX-M-15	0.118 µg/mL (≈ 0.249 µM)
Escherichia coli J53, plasmid: pUN4 with blaOXA-48	0.5 µg/mL and 1 µg/mL
Escherichia coli J53, plasmid: pUN4 with the DEL allele of blaOXA-48	0.02 µg/mL (≈ 0.0421 µM)
[1], plasmid: none	0.00967 µg/mL (≈ 0.0203 µM)
[1], plasmid: pBAD18 empty	0.011 µg/mL (≈ 0.0231 µM)
[1], plasmid: pBAD18 with blaCTX-M-14	0.417 µg/mL (≈ 0.876 µM)
[1], plasmid: pBAD18 with blaCTX-M-15	0.166 µg/mL (≈ 0.349 µM)
[1], plasmid: pBAD18 with blaKPC-2	0.667 µg/mL (≈ 1.4 µM)
[1], plasmid: pBAD18 with blaNDM-1	2 µg/mL (≈ 4.21 µM)
[1], plasmid: pBAD18 with blaOXA-1	0.118 µg/mL (≈ 0.249 µM)
[1], plasmid: pBAD18 with blaOXA-48	0.583 µg/mL (≈ 1.23 µM)
[1], plasmid: pBAD18 with blaTEM-1	0.124 µg/mL (≈ 0.261 µM)

C[C@@H]1O[C@@H]1P(=O)(O)O [fosfomycin]
[2]
Settings	MIC [µg/mL]
plasmid: none	0.583 (≈ 4.23 µM)
plasmid: pBAD18 empty	0.5 (≈ 3.62 µM)
plasmid: pBAD18 with blaCTX-M-14	0.5 (≈ 3.62 µM)
plasmid: pBAD18 with blaCTX-M-15	0.5 (≈ 3.62 µM)
plasmid: pBAD18 with blaKPC-2	0.5 (≈ 3.62 µM)
plasmid: pBAD18 with blaNDM-1	0.5 (≈ 3.62 µM)
plasmid: pBAD18 with blaOXA-1	0.5 (≈ 3.62 µM)
plasmid: pBAD18 with blaOXA-48	0.5 (≈ 3.62 µM)
plasmid: pBAD18 with blaTEM-1	0.5 (≈ 3.62 µM)

O=C(O)c1cn(C2CC2)c2cc(N3CCNCC3)c(F)cc2c1=O [ciprofloxacin]
[1]
Settings	MIC [µg/mL]
plasmid: none	0.0225 (≈ 0.0679 µM)
plasmid: pBAD18 empty	0.02 (≈ 0.0604 µM)
plasmid: pBAD18 with blaCTX-M-14	0.0225 (≈ 0.0679 µM)
plasmid: pBAD18 with blaCTX-M-15	0.025 (≈ 0.0754 µM)
plasmid: pBAD18 with blaKPC-2	0.0225 (≈ 0.0679 µM)
plasmid: pBAD18 with blaNDM-1	0.015 (≈ 0.0453 µM)
plasmid: pBAD18 with blaOXA-1	0.0225 (≈ 0.0679 µM)
plasmid: pBAD18 with blaOXA-48	0.02 (≈ 0.0604 µM)
plasmid: pBAD18 with blaTEM-1	0.02 (≈ 0.0604 µM)
